Reference: PubChem BioAssay AID504332 (National Center for Advancing Translational Sciences (NCATS), 2011)
In all, about 350,000 compounds went through this assay and about 31,000 (8.9%) were called active. This list was built around the results that the source calls inconclusive (neither active nor inactive); the mix of calls is not that of the screen. Calls follow the shape of the dose curve; as a rule, active = well fitted inhibition curve with a large enough effect; inconclusive = small, poorly fitted or top-dose-only effect; inactive = no such curve, though single readings can be large or run the other way. Potencies of inconclusive entries are doubtful fits and often do not repeat.

These compounds were tested against Histone-lysine N-methyltransferase EHMT2 (Homo sapiens) (UniProt Q96KQ7) (assay: qHTS Assay for Inhibitors of Histone Lysine Methyltransferase G9a). Details: G9a H3K9 monomethylation, AlphaScreen, 2 h; activity, negative = inhibition: at 59 µM (top of the series) unless noted.
Chain of UniProt Q96KQ7 (Q96KQ7 whole entry, looked up): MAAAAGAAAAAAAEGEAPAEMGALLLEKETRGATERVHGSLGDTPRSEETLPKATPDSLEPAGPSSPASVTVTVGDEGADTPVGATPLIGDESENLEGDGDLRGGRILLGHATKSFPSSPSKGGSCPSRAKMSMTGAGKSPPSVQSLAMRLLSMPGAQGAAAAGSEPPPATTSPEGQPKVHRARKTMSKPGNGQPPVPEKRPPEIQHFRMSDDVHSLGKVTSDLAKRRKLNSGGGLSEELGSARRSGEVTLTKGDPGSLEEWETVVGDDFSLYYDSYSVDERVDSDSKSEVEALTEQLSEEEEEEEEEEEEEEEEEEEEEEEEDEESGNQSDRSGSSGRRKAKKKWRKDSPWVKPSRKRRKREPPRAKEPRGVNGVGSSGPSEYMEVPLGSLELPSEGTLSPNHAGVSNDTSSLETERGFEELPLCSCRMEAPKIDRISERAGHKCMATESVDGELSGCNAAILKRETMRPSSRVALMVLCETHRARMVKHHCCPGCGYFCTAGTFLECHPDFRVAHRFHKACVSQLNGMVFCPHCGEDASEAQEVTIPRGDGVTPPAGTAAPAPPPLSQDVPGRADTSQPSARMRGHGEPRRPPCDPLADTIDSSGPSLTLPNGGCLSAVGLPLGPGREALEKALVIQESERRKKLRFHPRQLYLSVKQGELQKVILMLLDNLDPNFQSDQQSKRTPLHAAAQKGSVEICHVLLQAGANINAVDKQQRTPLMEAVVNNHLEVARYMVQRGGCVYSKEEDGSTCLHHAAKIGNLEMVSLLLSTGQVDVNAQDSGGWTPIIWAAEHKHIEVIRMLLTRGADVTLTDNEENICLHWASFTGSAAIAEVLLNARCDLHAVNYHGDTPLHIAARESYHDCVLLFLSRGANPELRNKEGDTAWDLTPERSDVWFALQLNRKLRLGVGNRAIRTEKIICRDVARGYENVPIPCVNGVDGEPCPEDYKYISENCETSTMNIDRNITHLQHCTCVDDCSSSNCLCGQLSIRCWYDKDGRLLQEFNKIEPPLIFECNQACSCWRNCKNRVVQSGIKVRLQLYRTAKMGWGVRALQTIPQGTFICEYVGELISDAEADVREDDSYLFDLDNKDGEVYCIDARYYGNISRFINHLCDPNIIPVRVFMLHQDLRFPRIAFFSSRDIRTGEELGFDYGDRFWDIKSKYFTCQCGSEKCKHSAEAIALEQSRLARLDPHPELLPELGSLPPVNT
Outline: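 Methyltransferase reactions run at room temperature for 2 h (20 nM enzyme, 500 nM biotin-H3K9 peptide, 20 uM SAM) after a 15 min compound preincubation; product detected by AlphaScreen beads and anti-H3K9me1 antibody.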
% is scaled to controls: 0 for no effect and ±100 for the full control effect; potency is read from the fitted curve at half-maximal effect; tags tell the direction and shape of the fitted curve.
Also: nearly all actives have a fitted effect of over 75% in size.

Structure (SMILES) | Potency | activity, negative = inhibition
Cc1ccc2nc(-c3ccccc3F)c(Nc3ccc(Cl)cc3)n2c1 | inconclusive: 7.08 µM [inhibitor, partial curve] | 
COC(=O)NCC1(C)CC(NC(=O)OC)CC(C)(C)C1 (stereo unspecified) | inconclusive: 63.1 µM [inhibitor, partial curve, poor fit] | 
Cc1ccc(Sc2oc(/C=N/n3cnnc3)cc2Br)cc1 | inactive | 
CN(C(=O)c1cc(COc2ccc(F)c(F)c2)on1)C1CCOC1 (stereo unspecified) | inactive | 
O=C1C=C(c2ccc(-c3ccccc3)cc2)C[C@@H](c2ccc(Cl)cc2)C1 |  | inactive: 1.67% [at 0.501 µM]
Cn1c(O)c(/C=C2\C=Nc3ccccc32)sc1=Nc1ccc(C(=O)O)cc1 | active: 35.5 µM | 
Cc1c(C(=O)N2CCCC2)oc2c1-c1nn(CC(=O)NCCCOC(C)C)cc1CC2 | inconclusive: 39.8 µM [inhibitor, partial curve, poor fit] | 
O=C(NC(=S)Nc1ccccc1N1CCCC1)c1ccccc1[N+](=O)[O-] | inconclusive: 22.4 µM [inhibitor, single point] | 
CCOC(=O)/C(=C\c1cccnc1)C(=O)c1cc(C(C)=O)c(Nc2ccccc2)s1 | active: 10 µM | 
Cc1cccc(C2N(c3nccs3)C(=O)C3CCCN32)c1 (stereo unspecified) | active: 7.94 µM | 
Cc1ccc(C(=O)c2cn(CC(=O)NC3CCCCC3)c3nc(C)ccc3c2=O)cc1 | inactive | 
Cc1ccccc1CN1C(=O)/C(=C\c2ccc(C(=O)NCCN3CCOCC3)cc2)Sc2ccccc21 | inactive | 
c1ccc(N=Nc2cn[nH]c2-c2ccco2)cc1 | inconclusive: 22.4 µM [inhibitor, full curve] | 
O=C(CSc1nnc(NC2CCCCC2)s1)NCc1ccco1 | inconclusive: 50.1 µM [inhibitor, partial curve, poor fit] | 
CN1CCc2nc(SCc3ccc(C(C)(C)C)cc3)c(C#N)cc2C1 | inconclusive: 3.98 µM [inhibitor, single point] | 
COc1ccc(NC2CCCN(C(=O)c3ccncc3)C2)cc1 (stereo unspecified) | inconclusive: 50.1 µM [inhibitor, partial curve, poor fit] | 
Cc1c(NC(=O)c2ccc(NC(=O)C3CC3)cc2)cccc1C(=O)O | inactive | 
Cc1ccccc1-n1nc(C)c2cc(C(=O)N3CCN(S(=O)(=O)c4ccccc4)CC3)sc21 | inconclusive: 1.41 µM [inhibitor, single point] | 
CC12CC(NC(=O)N1c1cccc(C(=O)NCc3ccc4c(c3)OCO4)c1)c1cc(Cl)ccc1O2 (stereo unspecified) | inconclusive: 89.1 µM [inhibitor, single point] | 
CCCc1cc(C(=O)N2CCCC(N3CCN(c4ccc(F)cc4)CC3)C2)no1 (stereo unspecified) | inconclusive: 89.1 µM [inhibitor, single point] | 
CCN(CC)CCN(C(=O)c1ccc2c(c1)CCCC2)c1nc2ccc(F)cc2s1 | active: 50.1 µM | 
O=S(=O)(c1ccccc1)N1CCC2(CCN(Cc3ccncc3)CC2)CC1 |  | inactive: 0.496% [at 12.7 µM]
COCCOCCOCCC(=O)NC1CC2CCC1(C)C2(C)C (stereo unspecified) | inconclusive: 0.126 µM [inhibitor, full curve, poor fit] | 

Structure (SMILES) | Potency | activity, negative = inhibition
COc1ccc2[nH]c(=O)c(CN(c3ccccc3)S(=O)(=O)c3ccccc3)cc2c1 | inactive | 
COc1cc(-c2nc(Cn3nnc(C(=O)Nc4ccccc4)c3C)c(C)o2)cc(OC)c1OC | inconclusive: 12.6 µM [inhibitor, partial curve] | 
O=C(NC1CC(=O)N(c2cccc(F)c2)C1)C1CCCC1 (stereo unspecified) | inactive | 
COc1ccc(C(=O)NNC(=O)C(=O)N2CCCCC2)cc1OC | inconclusive: 31.6 µM [inhibitor, partial curve, poor fit] | 
O=C(CC1Nc2ccccc2NC1=O)NCC1COc2ccccc2O1 (stereo unspecified) | inconclusive: 56.2 µM [inhibitor, partial curve, poor fit] | 
O=C(Nc1nc2ccc(S(=O)(=O)N3CCCC3)cc2s1)c1ccccn1 | active: 12.6 µM | 
Cc1ccccc1/C=N/Nc1ccnc2cc(Cl)ccc12 | inactive | 
Brc1cc2[nH]cnc2c2ccccc12 |  | inconclusive: -59.7% [inhibitor]
O=C(NC(=S)NCCC1=CCCCC1)c1cccnc1 | inconclusive: 70.8 µM [inhibitor, partial curve] | 
Cc1ccc(C(C)C)cc1OCCN1CCCC1 | inconclusive: 28.2 µM [inhibitor, single point] | 
CCCn1c2ccccc2c2nnc(SCc3[nH]c(=O)[nH]c3C(=O)CCCCC(=O)OCC)nc21 | inconclusive: 39.8 µM [inhibitor, single point] | 
CC(=O)c1ccc(N2CCN(S(=O)(=O)c3ccc4c5c3CC(=O)N5CC(C)S4)CC2)cc1 (stereo unspecified) | active: 44.7 µM | 
CC1(C)CC(=O)N(CC(=O)O)c2ccccc2S1(=O)=O | inconclusive: 89.1 µM [inhibitor, single point] | 
FC(c1nc2ccccc2[nH]1)C(F)(F)F (stereo unspecified) | inactive | 
COc1ccc(/C=N/n2cnc3c([nH]c4ccc(F)cc43)c2=O)cc1CN1CCCC1 | active: 39.8 µM | 
Cc1ccccc1CS(=O)(=O)c1nnc([C@H](CC(C)C)NC(=O)OC(C)(C)C)o1 | active: 35.5 µM | 
COc1ccc(-c2nc(C)sc2CC(=O)O)cc1OC | inconclusive: 79.4 µM [inhibitor, single point] | 
CC(C)OC(=O)CSc1nc(N)c(C#N)c(-c2cccs2)c1C#N | inconclusive: 39.8 µM [inhibitor, single point] | 
CCN(CC)c1cc(C)c2ccccc2n1 | active: 1.12 µM | 
COc1ccc(C(=O)OCC(=O)c2ccc(S(=O)(=O)N3CCCCC3)cc2)c(OC)c1 | inconclusive: 14.1 µM [inhibitor, partial curve, poor fit] | 
CC(OC(=O)Cn1[nH]c(=O)c2ccccc2c1=O)C(=O)Nc1ccc(F)cc1Cl (stereo unspecified) | inconclusive: 79.4 µM [inhibitor, partial curve, poor fit] | 
COc1ccc(S(=O)(=O)N(CC(=O)NCCC(C)C)c2ccccc2)cc1OC | inactive | 
O=C(Nc1ccc(N2CCCC2)c(Cl)c1)c1cccc(-c2cc3ccccc3oc2=O)c1 | active: 44.7 µM | 
